Assay results taken from PubChem BioAssay (Tox21).
Where “and” joins values, the source holds several entries; their conditions need not be identical. Equal values may be shown once. The shares of active, inactive and inconclusive entries below differ from those in the screen. Potencies of inconclusive entries are doubtful fits and often do not repeat. Calls of active or inactive are those of the source. Unless noted, calls come from the whole dose curve; as a rule, active = well fitted cell-killing curve with a large enough effect in the repeat runs; inconclusive = weak or mixed curves; inactive = no such curve, though single readings can be large or run the other way.

Tested on: not listed separately
Test: qHTS assay to identify small molecule agonists of the peroxisome proliferator-activated receptor delta (PPARd) signaling pathway - cell viability counter screen (AID 743211); note: nearly all actives have a fitted effect of over 55% in size
Conditions: PPARd-bla HEK293H viability, CellTiter-Glo luminescence, 17 h; activity change, negative = cytotoxicity: at 62.6 µM (top of the series) unless noted
Method in brief: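 Read-out: CellTiter-Glo luminescence, 30 min RT, measured in the same wells as the beta-lactamase reporter. Cells: GeneBLAzer PPAR delta UAS-bla HEK293H, 3000 cells/well, compound exposure 17 h at 37C.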
% is set by controls: 0 for no effect and ±100 for the full control effect; potency is the fitted concentration of half-maximal effect; tags give direction and shape of the fitted curve.

| Compound | Potency | activity change, negative = cytotoxicity |
| --- | --- | --- |
| CCN(Cc1cccc(S(=O)(=O)O)c1)c1ccc(C(=C2C=CC(=[N+](CC)Cc3cccc(S(=O)(=O)O)c3)C=C2)c2ccccc2S(=O)(=O)[O-])cc1 | inconclusive: 24.6 µM [cytotoxic, partial curve] |  |
| CCCCN(CCN(CCCC)C(=O)N1CCOCC1)C(=O)N1CCOCC1 | inconclusive: 37.6 µM [cytotoxic, single point] |  |
| Cc1ccc(C(C)C)c(O)c1 | inconclusive: 54.9 µM [cytotoxic, single point] |  |
| CCCCCCCC(=O)OC | inactive |  |
| COc1ccc(C(=O)NCc2ccc(OCCN(C)C)cc2)cc1OC |  | inactive: 2.6% |
| Cc1ccc(OC(=O)c2ccccc2O)cc1 |  | inactive: 3.57% |
| O=C(O)Cn1cnnn1 | inconclusive: 33.5 µM [cytotoxic, partial curve, poor fit] |  |
| C[Si]1(C)O[Si](C)(C)O[Si](C)(C)O[Si](C)(C)O[Si](C)(C)O1 |  | inactive: 1.16% |
| CCO[Si](CCCNC(N)=O)(OCC)OCC | inactive |  |
| COC(=O)Nc1nc2ccc(S(=O)c3ccccc3)cc2[nH]1 (centres undefined) | inconclusive: 17.4 µM [cytotoxic, partial curve, poor fit] and inconclusive: 6.68 µM [cytotoxic] |  |
| CS(=O)(=O)c1ccc(-c2cn3ccccc3n2)cc1 | active: 29.8 µM |  |

Biological target: Peroxisome proliferator-activated receptor delta (Homo sapiens) (UniProt Q03181)
Sequence of UniProt Q03181 (Q03181 whole entry, looked up): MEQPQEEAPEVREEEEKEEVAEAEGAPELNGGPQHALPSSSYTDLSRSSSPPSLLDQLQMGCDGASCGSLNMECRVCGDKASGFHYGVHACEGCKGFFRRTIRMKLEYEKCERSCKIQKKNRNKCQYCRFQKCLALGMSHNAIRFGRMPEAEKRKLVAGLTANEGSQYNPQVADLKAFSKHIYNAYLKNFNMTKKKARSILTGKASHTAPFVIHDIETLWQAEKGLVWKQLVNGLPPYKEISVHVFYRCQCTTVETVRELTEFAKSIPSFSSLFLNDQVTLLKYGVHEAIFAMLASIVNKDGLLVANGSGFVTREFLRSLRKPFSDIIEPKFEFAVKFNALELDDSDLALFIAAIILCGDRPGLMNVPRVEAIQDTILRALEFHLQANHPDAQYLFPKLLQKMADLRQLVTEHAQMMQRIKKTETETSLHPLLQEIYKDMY
Test: qHTS assay to identify small molecule agonists of the peroxisome proliferator-activated receptor delta (PPARd) signaling pathway (AID 743212; calls by dose curve)
Conditions: HEK293H PPARd-UAS-bla, beta-lactamase FRET ratio, 17 h; activation: at 62.6 µM (top of the series) unless noted
Method in brief: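 GeneBLAzer PPARd UAS-bla HEK293H cells (beta-lactamase reporter under UAS control), plated and rested 5 h at 37 C, then exposed to compounds in DMSO at 37 C; LiveBLAzer B/G FRET substrate added, 2 h room temperature, fluorescence read.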

| Compound | Potency | activation |
| --- | --- | --- |
| CCCCN(CCN(CCCC)C(=O)N1CCOCC1)C(=O)N1CCOCC1 | inconclusive: 3.76 µM [rising, partial curve, poor fit] |  |
| CCOC(C)=O |  | inactive: 2.03% [at 81.1 µM] |
| CC(=O)OCC(=O)NCCCOc1cccc(CN2CCCCC2)c1 |  | inactive: -2.98% |
| Cc1ccccc1Br |  | inactive: 0.992% |
| CC(C)(C)CC(=O)OCC(=O)[C@@]1(O)CC[C@H]2[C@@H]3CCC4=CC(=O)C=C[C@]4(C)[C@H]3[C@@H](O)C[C@@]21C | inconclusive: 33.5 µM [single point] |  |
| CCCCC(CC)C(=O)OCCOCCOCCOC(=O)C(CC)CCCC (centres undefined) |  | inconclusive: -2.04% [at 81.1 µM] |
| O=C(O)Cc1ccccc1Nc1c(Cl)cccc1Cl |  | inconclusive: 1.18% |
| CN(N=O)C(=O)N[C@@H]1[C@@H](O)[C@H](O)[C@@H](CO)O[C@@H]1O | inactive |  |
